Assay results from PubChem BioAssay AID1347165 (National Center for Advancing Translational Sciences (NCATS), 2019).
Hit rate of the full screen: of about 220,000 compounds, about 5,700 (2.6%) were called active. The shares of active, inactive and inconclusive entries below differ from those in the screen. Calls follow the shape of the dose curve; as a rule, active = well fitted inhibition curve with a large enough effect; inconclusive = small, poorly fitted or top-dose-only effect; inactive = no such curve, though single readings can be large or run the other way. A potency beside an inconclusive call is a rough fit, not a confirmed value.

These molecules were tested against Lysine-specific demethylase 5B (Homo sapiens) (UniProt Q9UGL1) (assay: Primary screen for KDM5B Histone Demethylases FDH-coupled qHTS). Conditions: FDH-coupled NADH fluorescence (FDH is formaldehyde dehydrogenase); activity change, negative = inhibition: at 57.7 µM (top of the series) unless noted.
Summary of the method: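 Coupled FDH/NAD⁺ fluorescence readout. KDM5BΔAP 200 nM final; compound titration, 10 min RT preincubation; substrate mix 12.5 µM H3K4me3, 25 µM 2-OG, 50 µM Fe(II), 100 µM ascorbate, 0.25 mM NAD⁺, 0.25 U/mL FDH; ΔRFU over 30 min.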
Also: nearly all actives have a fitted effect of over 70% in size.
For activity change, negative = inhibition in this document: 0% is about no effect.
Potency is read from the fitted curve at half-maximal effect; tags tell the direction and shape of the fitted curve.

Sequence of UniProt Q9UGL1 (Q9UGL1 whole entry, looked up): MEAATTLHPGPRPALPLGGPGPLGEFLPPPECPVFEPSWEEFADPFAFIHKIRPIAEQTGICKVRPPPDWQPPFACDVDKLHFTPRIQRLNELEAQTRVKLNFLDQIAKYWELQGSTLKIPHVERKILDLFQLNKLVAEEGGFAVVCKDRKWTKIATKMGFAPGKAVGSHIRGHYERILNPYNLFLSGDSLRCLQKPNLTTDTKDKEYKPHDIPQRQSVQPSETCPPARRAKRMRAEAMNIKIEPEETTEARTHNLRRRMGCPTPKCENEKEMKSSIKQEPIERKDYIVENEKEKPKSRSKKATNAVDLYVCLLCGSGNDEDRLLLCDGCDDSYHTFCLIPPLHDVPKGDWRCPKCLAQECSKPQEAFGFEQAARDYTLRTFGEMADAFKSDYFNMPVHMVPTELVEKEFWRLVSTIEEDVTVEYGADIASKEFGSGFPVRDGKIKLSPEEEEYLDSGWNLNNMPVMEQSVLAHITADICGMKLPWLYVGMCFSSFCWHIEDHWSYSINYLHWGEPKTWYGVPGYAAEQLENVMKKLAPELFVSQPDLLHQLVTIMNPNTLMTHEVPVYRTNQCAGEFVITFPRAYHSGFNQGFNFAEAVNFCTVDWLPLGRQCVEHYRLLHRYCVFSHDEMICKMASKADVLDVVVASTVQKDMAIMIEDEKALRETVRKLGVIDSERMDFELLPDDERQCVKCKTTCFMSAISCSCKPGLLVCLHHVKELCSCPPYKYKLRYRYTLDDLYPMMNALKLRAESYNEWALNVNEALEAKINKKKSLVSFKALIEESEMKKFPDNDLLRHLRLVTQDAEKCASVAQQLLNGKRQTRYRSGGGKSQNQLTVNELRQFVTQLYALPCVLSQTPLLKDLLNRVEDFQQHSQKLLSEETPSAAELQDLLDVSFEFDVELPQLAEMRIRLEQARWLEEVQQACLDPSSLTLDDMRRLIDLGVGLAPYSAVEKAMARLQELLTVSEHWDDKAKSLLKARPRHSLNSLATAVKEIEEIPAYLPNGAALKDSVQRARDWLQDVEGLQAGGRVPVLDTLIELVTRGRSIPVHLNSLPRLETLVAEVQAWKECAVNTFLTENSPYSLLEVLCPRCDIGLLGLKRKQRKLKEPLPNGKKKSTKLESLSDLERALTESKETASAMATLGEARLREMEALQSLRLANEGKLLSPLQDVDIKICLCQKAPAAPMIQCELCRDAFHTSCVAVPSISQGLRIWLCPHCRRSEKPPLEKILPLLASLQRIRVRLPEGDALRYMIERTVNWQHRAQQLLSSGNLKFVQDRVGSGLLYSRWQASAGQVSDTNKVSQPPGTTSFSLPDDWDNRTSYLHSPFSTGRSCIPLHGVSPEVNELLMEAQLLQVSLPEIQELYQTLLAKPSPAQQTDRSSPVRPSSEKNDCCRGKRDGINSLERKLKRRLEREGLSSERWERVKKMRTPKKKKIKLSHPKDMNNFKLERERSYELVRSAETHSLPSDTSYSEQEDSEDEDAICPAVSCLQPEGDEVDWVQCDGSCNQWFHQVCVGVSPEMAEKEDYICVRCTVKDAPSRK

SMILES	Potency	activity change, negative = inhibition
O=C(NCC1Cn2cccc2C(=O)N1Cc1ccccc1)c1ccccn1 (stereo not drawn)	inactive	
O=[S+]([O-])(c1ccccc1)N1CC(N2CCc3ccccc32)C1	inconclusive: 70.8 µM [inhibitor, partial curve, poor fit]	
Nc1nccnc1C(=O)Nc1ccccn1	inconclusive: 28.2 µM [inhibitor, single point]	
CCOc1cccc(-c2noc(-c3nnn4c3COC(c3ccc(OC)cc3)C4)n2)c1 (stereo not drawn)	active: 17.8 µM	
COc1ccc(/C(C#N)=C/c2ccc(-c3cccc(C(F)(F)F)c3)o2)cc1OC	inconclusive: 39.8 µM [inhibitor, single point]	
O=C(COc1ncnc2c(Cl)cc(Cl)cc12)Nc1ccc(Cl)cc1	inactive	
COCC(=O)Nc1ccc2c(c1)CN(Cc1ccc(Cl)cc1)C(=O)C(C)O2 (stereo not drawn)	inconclusive: 20 µM [inhibitor, partial curve]	
CCOc1ccccc1NC(=O)c1c(NC(=O)c2cccc(C)c2)sc2c1CCCC2	inconclusive: 3.98 µM [inhibitor, full curve, poor fit]	
CCc1ccccc1NC(=O)Nc1cc(C(=O)NCc2ccc(C)cc2)ccc1N1CCCC1	inconclusive: 25.1 µM [inhibitor, partial curve, poor fit]	
CCCN1CCC(NC(=O)COc2ccc(F)cc2)CC1	inactive	
CCn1cc(S(=O)(=O)N2CC[C@H]3C(=O)NCCCCCCN(Cc4ccncc4)[C@@H]3C2)cn1	inconclusive: 28.2 µM [inhibitor, partial curve, poor fit]	
COc1ccc(CNC(=O)c2ccc3c(c2)nc2n3CCC(C)C2)c(OC)c1 (stereo not drawn)		inconclusive: -35.7% [inhibitor]
CCOc1ccccc1NC(=O)Cn1nnc2sc(-c3ccccc3)cc2c1=O	inconclusive: 17.8 µM [inhibitor, partial curve, poor fit]	
Cn1nc(-c2ccc(C(=O)Nc3ccc(F)cc3)cc2)c2ccccc2c1=O	inconclusive: 31.6 µM [inhibitor, partial curve, poor fit]	
COc1cccc(N2CCN(C(=O)CCNS(=O)(=O)c3ccc4[nH]c(=O)ccc4c3)CC2)c1	inactive	
C=Cc1ccc(Cn2nc(-c3ccc(C)c(S(=O)(=O)N(CC)CC)c3)ccc2=O)cc1	inconclusive: 25.1 µM [inhibitor, single point]	
Cn1ccc(C(=O)N2CC(CNC(=O)Cc3ccccc3)C3(C2)CN(c2ccccc2)C3)n1 (stereo not drawn)	inactive	
COc1ccc2cc(-c3nc4ccc(C(=O)O)cc4[nH]3)c(=O)oc2c1	inconclusive: 0.891 µM [inhibitor, full curve, poor fit]	
